In the supplement of paper PMC4967469:
Lines with a small IC50 respond at low doses; fits outside the tested doses are given as limits. For AUC the same curve is integrated over the 256-fold range of doses and scaled to a fraction: 1 means no effect, lower means more sensitive. The top dose, if marked as inferred, was calculated from the reported fits.

The cell lines below were run with O=C1NC(=O)/C(=C\c2ccc3nccnc3c2)S1 [AS605240] (assay: Viability of human cancer cell lines after 72 h of drug (GDSC screen)). Conditions: top dose inferred.
Protocol: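 Human cancer cell lines in 384-well plates, medium with 10% serum, drug for 72 h over a 256-fold dose range (nine 2-fold or five 4-fold steps up to the top dose). Adherent lines were fixed and stained with the nucleic acid dye Syto60, suspension lines read with resazurin; signal relative to control wells, capped at 0 and 100%. One two-parameter sigmoid per drug and line, fitted in a mixed model over all curves with the slope shared within a line.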

| Cell Line | AUC | IC50 |
| --- | --- | --- |
| CAMA-1 (breast, adherent, top dose 20 µM) | 0.95 | > 20 µM |
| NMC-G1 (glioma, adherent, top dose 20 µM) | 0.835 | 17.7 µM |
| NCI-H596 (lung adenocarcinoma, adherent, top dose 20 µM) | 0.646 | 3.6 µM |
| HuO-3N1 (osteosarcoma, adherent, top dose 20 µM) | 0.982 | > 20 µM |
| HT-3 (cervix, adherent, top dose 20 µM) | 0.94 | > 20 µM |
| GDM-1 (acute myeloid leukaemia, suspension, top dose 20 µM) | 0.654 | 3.28 µM |
| 647-V (bladder, adherent, top dose 20 µM) | 0.855 | 16.1 µM |
| OCI-AML5 (acute myeloid leukaemia, suspension, top dose 20 µM) | 0.351 | 0.503 µM |
| RL95-2 (endometrium, adherent, top dose 20 µM) | 0.977 | > 20 µM |
| CAL-85-1 (breast, adherent, top dose 20 µM) | 0.842 | > 20 µM |
| SIMA (neuroblastoma, adherent, top dose 20 µM) | 0.978 | > 20 µM |
| WSU-DLCL2 (B-cell lymphoma, suspension, top dose 20 µM) | 0.942 | > 20 µM |
| NCI-H2141 (small cell lung carcinoma, suspension, top dose 20 µM) | 0.784 | 8.24 µM |
| HuCCT1 (biliary tract, adherent, top dose 20 µM) | 0.865 | > 20 µM |
| JVM-2 (lymphoid neoplasm, suspension, top dose 20 µM) | 0.949 | > 20 µM |
| IA-LM (large cell lung carcinoma, adherent, top dose 20 µM) | 0.902 | > 20 µM |
| OVCAR-5 (ovary, adherent, top dose 20 µM) | 0.915 | > 20 µM |
| ESS-1 (endometrium, adherent, top dose 20 µM) | 0.948 | > 20 µM |
| NCI-H1836 (small cell lung carcinoma, suspension, top dose 20 µM) | 0.931 | > 20 µM |
| NCI-H1155 (large cell lung carcinoma, suspension, top dose 20 µM) | 0.897 | 17 µM |
| OACp4C (oesophagus, adherent, top dose 20 µM) | 0.303 | 0.31 µM |
| NCI-H1734 (lung adenocarcinoma, adherent, top dose 20 µM) | 0.943 | > 20 µM |
| HCC70 (breast, adherent, top dose 20 µM) | 0.858 | 15.9 µM |
| 8-MG-BA (glioma, adherent, top dose 20 µM) | 0.866 | 15.9 µM |
| AGS (stomach, adherent, top dose 20 µM) | 0.613 | 2.47 µM |
| NCI-H187 (small cell lung carcinoma, suspension, top dose 20 µM) | 0.944 | > 20 µM |
| WIL2-NS (lymphoid neoplasm, suspension, top dose 20 µM) | 0.582 | 2.01 µM |

| Cell Line | AUC | IC50 |
| --- | --- | --- |
| KYSE-450 (oesophagus, adherent, top dose 20 µM) | 0.559 | 1.79 µM |
| A2058 (melanoma, adherent, top dose 20 µM) | 0.905 | > 20 µM |
| FU-OV-1 (ovary, adherent, top dose 20 µM) | 0.719 | 6.44 µM |
| HOP-92 (large cell lung carcinoma, adherent, top dose 20 µM) | 0.966 | > 20 µM |
| LN-229 (glioma, adherent, top dose 20 µM) | 0.818 | 11.2 µM |
| SU-DHL-5 (B-cell lymphoma, suspension, top dose 20 µM) | 0.852 | 9.91 µM |
| NCI-H1568 (lung adenocarcinoma, adherent, top dose 20 µM) | 0.698 | 5.22 µM |
| UMC-11 (lung carcinoid, adherent, top dose 20 µM) | 0.937 | > 20 µM |
| ME-1 (acute myeloid leukaemia, suspension, top dose 20 µM) | 0.378 | 0.562 µM |
| KARPAS-620 (haematopoietic neoplasm, suspension, top dose 20 µM) | 0.884 | 16.3 µM |
| NCI-SNU-16 (stomach, suspension, top dose 20 µM) | 0.991 | > 20 µM |
| OACM5-1 (oesophagus, semi-adherent, top dose 20 µM) | 0.811 | 12.3 µM |
| NCI-H1395 (lung adenocarcinoma, adherent, top dose 20 µM) | 0.969 | > 20 µM |
| LCLC-103H (large cell lung carcinoma, adherent, top dose 20 µM) | 0.913 | > 20 µM |
| MDA-MB-231 (breast, adherent, top dose 20 µM) | 0.873 | > 20 µM |
| CCRF-CEM (lymphoblastic leukaemia, suspension, top dose 20 µM) | 0.783 | 7.05 µM |
| H290 (mesothelioma, adherent, top dose 20 µM) | 0.863 | 15 µM |
| CP50-MEL-B (melanoma, adherent, top dose 20 µM) | 0.606 | 2.43 µM |
| NCI-H1581 (large cell lung carcinoma, semi-adherent, top dose 20 µM) | 0.888 | 19.4 µM |
| MONO-MAC-6 (acute myeloid leukaemia, suspension, top dose 20 µM) | 0.758 | 7.34 µM |
| NCI-H2347 (lung adenocarcinoma, adherent, top dose 20 µM) | 0.766 | 8.9 µM |
| BFTC-905 (bladder, adherent, top dose 20 µM) | 0.765 | 6.38 µM |
| H2461 (mesothelioma, adherent, top dose 20 µM) | 0.963 | > 20 µM |
| GR-ST (lymphoblastic leukaemia, suspension, top dose 20 µM) | 0.866 | > 20 µM |
| SJRH30 (rhabdomyosarcoma, adherent, top dose 20 µM) | 0.96 | > 20 µM |
| SW156 (kidney, adherent, top dose 20 µM) | 0.954 | > 20 µM |
| COLO-783 (melanoma, adherent, top dose 20 µM) | 0.965 | > 20 µM |

| Cell Line | AUC | IC50 |
| --- | --- | --- |
| SK-UT-1 (soft tissue, adherent, top dose 20 µM) | 0.976 | > 20 µM |
| NCI-H322M (lung adenocarcinoma, suspension, top dose 20 µM) | 0.839 | 18.6 µM |
| AM-38 (glioma, semi-adherent, top dose 20 µM) | 0.74 | 6.16 µM |
| NCI-H2029 (small cell lung carcinoma, adherent, top dose 20 µM) | 0.95 | > 20 µM |
| OAW-28 (ovary, adherent, top dose 20 µM) | 0.799 | 12.6 µM |
| OE19 (oesophagus, adherent, top dose 20 µM) | 0.986 | > 20 µM |
| BICR78 (head and neck, adherent, top dose 20 µM) | 0.902 | > 20 µM |
| COR-L311 (small cell lung carcinoma, suspension, top dose 20 µM) | 0.89 | > 20 µM |
| NCI-H1355 (lung adenocarcinoma, adherent, top dose 20 µM) | 0.903 | > 20 µM |
| A253 (head and neck, adherent, top dose 20 µM) | 0.977 | > 20 µM |
| YKG-1 (glioma, adherent, top dose 20 µM) | 0.914 | > 20 µM |
| NCI-H1573 (lung adenocarcinoma, adherent, top dose 20 µM) | 0.86 | 16 µM |
| NB5 (neuroblastoma, adherent, top dose 20 µM) | 0.855 | 16.3 µM |
| SNU-C5 (large intestine, adherent, top dose 20 µM) | 0.825 | 13.6 µM |
| KYAE-1 (oesophagus, suspension, top dose 20 µM) | 0.775 | 8.8 µM |
| DND-41 (T-cell leukaemia, suspension, top dose 20 µM) | 0.591 | 2.15 µM |
| NCI-H1648 (lung adenocarcinoma, adherent, top dose 20 µM) | 0.763 | 7.63 µM |
| COR-L105 (lung adenocarcinoma, adherent, top dose 20 µM) | 0.666 | 4.03 µM |
| NCI-H358 (lung adenocarcinoma, adherent, top dose 20 µM) | 0.677 | 4.14 µM |
| SNB75 (glioma, adherent, top dose 20 µM) | 0.931 | > 20 µM |
| WSU-NHL (lymphoid neoplasm, suspension, top dose 20 µM) | 0.725 | 4.95 µM |
| NCI-SNU-5 (stomach, suspension, top dose 20 µM) | 0.921 | > 20 µM |
| KYSE-520 (oesophagus, adherent, top dose 20 µM) | 0.891 | > 20 µM |
| JHH-6 (liver, adherent, top dose 20 µM) | 0.985 | > 20 µM |
| NTERA-2 cl.D1 (testis, adherent, top dose 20 µM) | 0.901 | > 20 µM |
